Tested on: MYC
Experiment: cells
Details: Homo sapiens, MV4-11, 4 h, read-out: Myc IC50 (μM)

**Q.** Which IC50 does the source give for `CNC(=O)c1ccc(-c2cc3c(cc2C#N)N(c2nn([C@H]4CCOC4)c4c2CN(C(C)=O)CC4)CCC3)cn1` [Example 131, 5-[1-[5-acetyl-1-[(3S)-tetrahydrofuran-3-yl]-6,7-dihydro-4H-pyrazolo[4,3-c]pyridin-3-yl]-7-cyano-3,4-dihydro-2H-quinolin-6-yl]-N-methyl-pyridine-2-carboxamide] here?
**A.** 0.051 µM

**Q.** Which IC50 does the source give for `COc1cc(-c2cc3c(cc2C(F)F)N(c2nn(C4CCOCC4)c4c2CN(C(C)=O)CC4)CCC3)ccn1` [Example 243, 1-[3-[7-(difluoromethyl)-6-(2-methoxy-4-pyridyl)-3,4-dihydro-2H-quinolin-1-yl]-1-tetrahydropyran-4-yl-6,7-dihydro-4H-pyrazolo[4,3-c]pyridin-5-yl]ethanone] here?
**A.** 0.016 µM

**Q.** For `CNC(=O)N1CCc2c(c(N3CCCc4cc(-c5cnn(C)c5)ncc43)nn2C2CCOCC2)C1` [Example 279, 1-[3-[2,6-difluoro-3-(1-methylpyrazol-4-yl)anilino]-1-tetrahydrofuran-3-yl-6,7-dihydro-4H-pyrazolo[4,3-c]pyridin-5-yl]ethanone], which IC50 is on record?
**A.** 0.104 µM

**Q.** How did the IC50 turn out when `CNC(=O)N1CCc2c(c(N3C[C@@H](C)Cc4cc(-c5cnn(C)c5)c(C(F)F)cc43)nn2C2CCOCC2)C1` [Example 251, (S)-3-[7-(difluoromethyl)-3-methyl-6-(1-methylpyrazol-4-yl)-3,4-dihydro-2H-quinolin-1-yl]-N-methyl-1-tetrahydropyran-4-yl-6,7-dihydro-4H-pyrazolo[4,3-c]pyridine-5-carboxamide] was run?
**A.** 0.006 µM

**Q.** How did the IC50 turn out when `CNC(=O)N1CCc2c(c(N3CCCc4cc(-c5cnn(C)c5)c(C(F)F)cc43)nn2[C@H]2CCO[C@@H](C)C2)C1` [Example 338, (S,S)-3-[7-(difluoromethyl)-6-(1-methylpyrazol-4-yl)-3,4-dihydro-2H-quinolin-1-yl]-N-methyl-1-(2-methyltetrahydropyran-4-yl)-6,7-dihydro-4H-pyrazolo[4,3-c]pyridine-5-carboxamide] was run?
**A.** 0.008 µM

**Q.** `CCc1cc2c(cc1-c1cnn(C)c1)CCCN2c1nn(C2CCOCC2)c2c1CN(C(=O)NC)CC2` [Example 260, 3-[7-ethyl-6-(1-methylpyrazol-4-yl)-3,4-dihydro-2H-quinolin-1-yl]-N-methyl-1-tetrahydropyran-4-yl-6,7-dihydro-4H-pyrazolo[4,3-c]pyridine-5-carboxamide] was tested. Which IC50 did it give?
**A.** 0.039 µM

**Q.** For `CNC(=O)N1CCc2c(c(N3CCCc4cc(-c5cnn(C)c5)c(C(F)F)cc43)nn2C2CCN(CC(F)(F)F)CC2)C1` [Example 334, 3-[7-(difluoromethyl)-6-(1-methylpyrazol-4-yl)-3,4-dihydro-2H-quinolin-1-yl]-N-methyl-1-[1-(2,2,2-trifluoroethyl)-4-piperidyl]-6,7-dihydro-4H-pyrazolo[4,3-c]pyridine-5-carboxamide], which IC50 is on record?
**A.** 0.009 µM

**Q.** How did the IC50 turn out when `CC(=O)N1CCc2c(c(N3CCCc4cc(-c5cnn(C)c5C)c(C#N)cc43)nn2C2COC2)C1` [Example 130, 1-[5-acetyl-1-(oxetan-3-yl)-6,7-dihydro-4H-pyrazolo[4,3-c]pyridin-3-yl]-6-(1,5-dimethylpyrazol-4-yl)-3,4-dihydro-2H-quinoline-7-carbonitrile] was run?
**A.** 0.323 µM

**Q.** `CC(=O)N1CCc2c(c(N3CCN(C)c4cc(-c5cnn(C)c5)ccc43)nn2[C@H]2CCOC2)C1` [Example 95, 1-[3-[4-methyl-6-(1-methylpyrazol-4-yl)-2,3-dihydroquinoxalin-1-yl]-1-[(3S)-tetrahydrofuran-3-yl]-6,7-dihydro-4H-pyrazolo[4,3-c]pyridin-5-yl]ethanone] was tested. Which IC50 did it give?
**A.** 0.474 µM

**Q.** Which IC50 does the source give for `CC(=O)N1CCc2c(c(N3CCN(C)c4cc(-c5cnn(C)c5)c(C#N)cc43)nn2C2CCOCC2)C1` [Example 263, 4-(5-acetyl-1-tetrahydropyran-4-yl-6,7-dihydro-4H-pyrazolo[4,3-c]pyridin-3-yl)-1-methyl-7-(1-methylpyrazol-4-yl)-2,3-dihydroquinoxaline-6-carbonitrile] here?
**A.** 0.015 µM

**Q.** For `CC(=O)N1CCc2c(c(N3CCc4c(F)cc(-c5cnn(C)c5)cc43)nn2C2CCOC2)C1` (stereo not drawn) [Example 209, 1-[3-[4-fluoro-6-(1-methylpyrazol-4-yl)indolin-1-yl]-1-tetrahydrofuran-3-yl-6,7-dihydro-4H-pyrazolo[4,3-c]pyridin-5-yl]ethanone], which IC50 is on record?
**A.** 3.36 µM

**Q.** For `CNC(=O)N1CCc2c(c(N3CCCc4cc(-c5cnn(C)c5)c(C(F)F)cc43)nn2[C@@H]2CCCOCC2)C1` [Example 380, (R)-3-(7-(difluoromethyl)-6-(1-methyl-1H-pyrazol-4-yl)-3,4-dihydroquinolin-1(2H)-yl)-N-methyl-1-(oxepan-4-yl)-1,4,6,7-tetrahydro-5H-pyrazolo[4,3-c]pyridine-5-carboxamide], which IC50 is on record?
**A.** 0.004 µM

**Q.** For `CNC(=O)N1CCc2c(c(N3CCC(C)c4cc(-c5cnn(C)c5)c(C(F)F)cc43)nn2C2CCOCC2)C1` (stereo not drawn) [Example 248, 3-[7-(difluoromethyl)-4-methyl-6-(1-methylpyrazol-4-yl)-3,4-dihydro-2H-quinolin-1-yl]-N-methyl-1-tetrahydropyran-4-yl-6,7-dihydro-4H-pyrazolo[4,3-c]pyridine-5-carboxamide], which IC50 is on record?
**A.** 0.017 µM

**Q.** How did the IC50 turn out when `CC(=O)N1CCc2c(c(N3CCC(C)c4cc(-c5cnn(C)c5)ccc43)nn2[C@H]2CCOC2)C1` (stereo in doubt) [Example 106, 1-[3-[4-methyl-6-(1-methylpyrazol-4-yl)-3,4-dihydro-2H-quinolin-1-yl]-1-tetrahydrofuran-3-yl-6,7-dihydro-4H-pyrazolo[4,3-c]pyridin-5-yl]ethanone] was run?
**A.** 2.15 µM

**Q.** How did the IC50 turn out when `CNC(=O)N1CCc2c(c(N3CCCc4cc(-c5cnc(N(C)C)s5)c(C(F)F)cc43)nn2C2CCOCC2)C1` [Example 366, 3-[7-(difluoromethyl)-6-[2-(dimethylamino)thiazol-5-yl]-3,4-dihydro-2H-quinolin-1-yl]-N-methyl-1-tetrahydropyran-4-yl-6,7-dihydro-4H-pyrazolo[4,3-c]pyridine-5-carboxamide] was run?
**A.** 0.008 µM

**Q.** With `CC(=O)N1CCc2c(c(N3CCc4cc(-c5cnn(C)c5)ccc43)nn2C2CCOCC2)C1` [Example 174, 1-[3-[5-(1-methylpyrazol-4-yl)indolin-1-yl]-1-tetrahydropyran-4-yl-6,7-dihydro-4H-pyrazolo[4,3-c]pyridin-5-yl]ethanone] as the compound, how does the IC50 read?
**A.** 0.478 µM

**Q.** Which IC50 does the source give for `CC(=O)N1CCc2c(c(N3CC(C)c4cc(-c5cnn(C)c5)ccc43)nn2C)C1` (stereo not drawn) [Example 192, 1-[1-methyl-3-[3-methyl-5-(1-methylpyrazol-4-yl)indolin-1-yl]-6,7-dihydro-4H-pyrazolo[4,3-c]pyridin-5-yl]ethanone] here?
**A.** 0.745 µM

**Q.** How did the IC50 turn out when `CNC(=O)N1CCc2c(c(N3CCCc4cc(-c5ccc(C)nc5)c(C#N)cc43)nn2C2CCOCC2)C1` [Example 288, 1-[3-[4-fluoro-3-(1-methylpyrazol-4-yl)anilino]-1-tetrahydrofuran-3-yl-6,7-dihydro-4H-pyrazolo[4,3-c]pyridin-5-yl]ethanone] was run?
**A.** 0.025 µM

**Q.** For `CNC(=O)N1CCc2c(c(N3CCCc4cc(-c5ccc(C)s5)c(C(F)F)cc43)nn2C2CCOCC2)C1` [Example 360, 3-[7-(difluoromethyl)-6-(5-methyl-2-thienyl)-3,4-dihydro-2H-quinolin-1-yl]-N-methyl-1-tetrahydropyran-4-yl-6,7-dihydro-4H-pyrazolo[4,3-c]pyridine-5-carboxamide], which IC50 is on record?
**A.** 0.113 µM

**Q.** For `Cn1cc(-c2cc(F)c(Nc3nn(C4CCOCC4)c4c3CN(C(N)=O)CC4)cc2C(F)F)cn1` [Example 256, N-methyl-3-[6-(1-methylpyrazol-4-yl)-7-(trifluoromethoxy)-3,4-dihydro-2H-quinolin-1-yl]-1-tetrahydropyran-4-yl-6,7-dihydro-4H-pyrazolo[4,3-c]pyridine-5-carboxamide], which IC50 is on record?
**A.** 0.07 µM

**Q.** Which IC50 does the source give for `CNC(=O)c1ccc(-c2ccc3c(c2)CCCN3c2nn([C@H]3CCOC3)c3c2CN(C(C)=O)CC3)cn1` [Example 46, 5-[1-[5-acetyl-1-[(3S)-tetrahydrofuran-3-yl]-6,7-dihydro-4H-pyrazolo[4,3-c]pyridin-3-yl]-3,4-dihydro-2H-quinolin-6-yl]-N-methyl-pyridine-2-carboxamide] here?
**A.** 1.53 µM

**Q.** `CC(=O)N1CCc2c(c(N3CC[C@H](C)c4cc(-c5cnn(C)c5)c(C#N)cc43)nn2[C@H]2CCOC2)C1` [Example 104, (S, S)-1-(5-acetyl-1-tetrahydrofuran-3-yl-6,7-dihydro-4H-pyrazolo[4,3-c]pyridin-3-yl)-4-methyl-6-(1-methylpyrazol-4-yl)-3,4-dihydro-2H-quinoline-7-carbonitrile] was tested. Which IC50 did it give?
**A.** 0.085 µM

**Q.** With `CC(=O)N1CCc2c(c(Nc3ccc(-c4cccc(F)c4)cc3)nn2C)C1` [Example 116, (S, R)-1-[3-[4-ethyl-6-(1-methylpyrazol-4-yl)-3,4-dihydro-2H-quinolin-1-yl]-1-tetrahydrofuran-3-yl-6,7-dihydro-4H-pyrazolo[4,3-c]pyridin-5-yl]ethanone] as the compound, how does the IC50 read?
**A.** 1.08 µM

**Q.** `CC(=O)N1CCc2c(c(N3CC[C@H](C)c4cc(-c5cnn(C)c5)c(C(F)F)cc43)nn2C2CCOCC2)C1` [Example 238, (S)-1-[3-[7-(difluoromethyl)-4-methyl-6-(1-methylpyrazol-4-yl)-3,4-dihydro-2H-quinolin-1-yl]-1-tetrahydropyran-4-yl-6,7-dihydro-4H-pyrazolo[4,3-c]pyridin-5-yl]ethanone] was tested. Which IC50 did it give?
**A.** 0.028 µM

**Q.** How did the IC50 turn out when `CC(=O)N1CCc2c(c(Nc3ccc(-c4cn(C)nc4C(F)(F)F)cc3F)nn2C)C1` [Example 34, 1-[3-[2-fluoro-4-[1-methyl-3-(trifluoromethyl)pyrazol-4-yl]anilino]-1-methyl-6,7-dihydro-4H-pyrazolo[4,3-c]pyridin-5-yl]ethanone] was run?
**A.** 0.6 µM

**Q.** For `CNC(=O)N1CCc2c(c(N3CCCc4cc(-c5cnn(C)c5)c(Cl)cc43)nn2C2CCOCC2)C1` [Example 257, 3-[7-chloro-6-(1-methylpyrazol-4-yl)-3,4-dihydro-2H-quinolin-1-yl]-N-methyl-1-tetrahydropyran-4-yl-6,7-dihydro-4H-pyrazolo[4,3-c]pyridine-5-carboxamide], which IC50 is on record?
**A.** 0.008 µM

**Q.** With `CC(=O)N1CCc2c(c(N3CCCc4cc(-c5cnn(C)c5)c(C5COC5)cc43)nn2C2CCOCC2)C1` [Example 355, 1-[3-[6-(1-methylpyrazol-4-yl)-7-(oxetan-3-yl)-3,4-dihydro-2H-quinolin-1-yl]-1-tetrahydropyran-4-yl-6,7-dihydro-4H-pyrazolo[4,3-c]pyridin-5-yl]ethanone] as the compound, how does the IC50 read?
**A.** 0.07 µM

From US9763922B2 (priority 2014, dated 2017)
